According to patent US6172185A, “Antimicrobial cationic peptide derivatives of bactenecin” (priority 1998, dated 2001):
Values after ≈ are worked out from the molar mass of the structure shown. Not every detail of the peptide structures is certain; ends, links or a residue may be inferred. Where a SMILES comes first, the peptide text is derived from it.

Experiments:
E. coli DC2 = assay: Cytoplasmic membrane potential dissipation, DiS-C3-(5) assay; assay type: cell-based, Escherichia coli; conditions: E. coli DC2, relative to MIC
P.aeruginosa = assay: MIC, modified two-fold microtitre broth dilution; assay type: cell-based, Pseudomonas aeruginosa
Excerpt: (§1) Bacterial strains for antimicrobial activity testing included Escherichia coli UB1005 and its antibiotic supersusceptible derivative DC2 (Richmond et al., Antimicrob. Agents Chemother. 10:215, 1976), Pseudomonas aeruginosa K799 and its antibiotic-supersusceptible derivative Z61 (Angus et al., Antimicrob. Agents Chemother. 21:299, 1982), Salmonella typhimurium 14028s and its defensin-supersusceptible derivative MS7953s (Fields et al., Science, 243:1059, 1989), Staphylococcus aureus ATCC25923 and a clinical isolate Staphylococcus aureus SAP1007. Other Gram-positive bacterial strains include Staphylococcus epidermidis (clinical isolate) and Enterococcus faecalis ATCC29212, Listeria monocytogenes, Corynebacterium xerosis, Streptococcus pneumoniae ATTC49619, Streptococcus pyogenes ATTC19615, Streptococcus mitis.
(§2) The minimal inhibitory concentration (MIC) of peptides was determined by a modified two-fold microtitre broth dilution method modified from that of Steinberg et al (Steinberg, Antimicrob. Agents Chemother. 41:1738, 1997). Using the classical method (Amsterdam, Antibiotics in Laboratory Medicine (Lorian, V., ed) pp. 72-78, 1991), higher concentrations of peptides tend to precipitate in the LB broth, thus the concentrations of peptides in the sequential wells are not accurate. Also the peptides stick to the most readily available (tissue-culture treated polystyrene) 96-well microtitre plates. Therefore the 2× series of dilutions was performed in Eppendoff tubes (polypropylene) before mixing with LB broth. Serial of two fold dilutions of peptides ranging from 640 μg/ml to 1.25 μg/ml were made in 0.2% BSA, 0.01% acetic acid buffer in the Eppendoff tubes. Ten μl of each concentration was added to each corresponding well of a 96-well microtiter plate (polypropylene cluster; Costar Corporation, Cambridge, Mass.). Bacteria were grown overnight and diluted 10-5 into fresh LB broth or Todd Hewitt broth for Streptococcus. LB medium contained 10 g/1l tryptone and 5 g/yeast extract, with no salt. Todd Hewitt contained 500 g/l beef heart infusion, 20 g/l bacto neopeptone, 2 g/l bacto dextrose, 2 g/l sodium chloride, 0.4 g/l disodium phosphate, 2.5 g/l sodium carbonate. One hundred […] containing about 10^4-10^5 CFU/ml of tested bacteria was added to each well. The plate was incubated at 37° C. overnight. The MIC was taken as the concentration at which greater than 90% of growth inhibition was observed.

Staph. epidermidis = assay: MIC, modified two-fold microtitre broth dilution; assay type: cell-based, Staphylococcus epidermidis
Excerpt: as §1, §2

S.typhimurium = assay: MIC, modified two-fold microtitre broth dilution; assay type: cell-based, Salmonella typhimurium
Excerpt: as §1, §2

Strep. mitis = assay: MIC, modified two-fold microtitre broth dilution; assay type: cell-based, Streptococcus mitis
Excerpt: as §1, §2

Listeria monocytogenes = assay: MIC, modified two-fold microtitre broth dilution; assay type: cell-based
Excerpt: as §1, §2

E. coli UB1005 = assay: Outer membrane permeabilization, NPN uptake assay; assay type: cell-based, Escherichia coli; conditions: 50% of maximal increase in fluorescence, FIG. 3
Procedure: Mid-log phase E. coli cells were collected and incubated with NPN in the presence of various concentrations of bactenecin (oxidized), bac2S, bactenecin (reduced). NPN was taken up into cells when the outer membrane was disrupted by the peptides. The uptake of NPN was measured by the increase of fluorescence. Polymyxin B: -.quadrature.-; Bactenecin: -+-; Bac2S: -o-; Bactenecin (Reduced): -.gradient.-
The ability of peptides to permeabilize the outer membrane was determined by the NPN assay of Loh et al. (Loh et al., Antimicrob. Agents Chemother. 19:777, 1984). Cytoplasmic membrane permeabilization was determined by using the membrane potential sensitive cyanine dye DiS-C3-(5) (Sims et al., Biochemistry 13:3315, 1974). The mutant E. coli DC2 with increased outer membrane permeability was used so that DiS-C3-(5) could reach the cytoplasmic membrane. Fresh LB medium was inoculated with an overnight culture, grown at 37° C., and mid-logarithmic phase cells (OD600=0.5-0.6) were collected. The cells were washed with buffer (5 mM HEPES, pH 7.2, 5 mM glucose) once, then resuspended in the same buffer to an OD600 of 0.05. The cell suspension was incubated with […] DiS-C3-(5) until DiS-C3-(5) uptake was maximal (as indicated by a stable reduction in fluorescence due to fluorescence quenching as the dye became concentrated in the cell by the membrane potential), and 100 mM KCl was added to equilibrate the cytoplasmic and external K+ concentration. One ml cell culture was placed in a 1 cm cuvette and desired concentration of tested peptide was added. The fluorescence reading was monitored by using a Perkin-Elmer model 650-10 S fluorescence spectrophotometer (Perkin-Elmer Corp. Norwalk, Conn.), with an excitation wavelength of 622 nm and an emission wavelength of 670 nm. The maximal increase of fluorescence due to the disruption of the cytoplasmic membrane by certain concentration of cationic peptide was recorded. A blank with only cells and the dye was used to subtract the background.
Antimicrobial peptides bind to LPS, displacing the native divalent cations. […]

Strep. pyogenes = assay: MIC, modified two-fold microtitre broth dilution; assay type: cell-based, Streptococcus pyogenes; conditions: for MIC Strep. pyogeness: Table IID, linear (Group 2): reduced forms of the peptides, Bac (Oxidized) as comparator
Excerpt: as §1, §2

Staph. aureus = assay: MIC, modified two-fold microtitre broth dilution; assay type: cell-based, Staphylococcus aureus
Excerpt: as §1, §2

C. xerosis = assay: MIC, modified two-fold microtitre broth dilution; assay type: cell-based, Corynebacterium xerosis
Excerpt: as §1, §2

Strep. pneumoniae = assay: MIC, modified two-fold microtitre broth dilution; assay type: cell-based, Streptococcus pneumoniae; conditions: for MIC Strep. pneumoniae: Table IIB, linear derivatives (Group 1); for MIC Strep. pneumonia: Table IID, linear (Group 2): reduced forms of the peptides, Bac (Oxidized) as comparator; for MIC S. pneumonia: Table IIIB, non-linear positive-charge modification derivatives
Excerpt: as §1, §2

E.facaelis = assay: MIC, modified two-fold microtitre broth dilution; assay type: cell-based, Enterococcus faecalis; conditions: Table IVB, non-linear hydrophobicity modification derivatives
Excerpt: as §1
The minimal inhibitory concentration (MIC) of peptides was determined by a modified two-fold microtitre broth dilution method modified from that of Steinberg et al (Steinberg, Antimicrob. Agents Chemother. 41:1738, 1997). […] Also the peptides stick to the most readily available (tissue-culture treated polystyrene) 96-well microtitre plates. […]

[1] = Table IIA, linear (Group 1) derivatives
[2] = Table IIC, linear (Group 2): reduced forms of the peptides, Bac (Oxidized) as comparator
[3] = Table IIB, linear derivatives (Group 1)
[4] = Table IID, linear (Group 2): reduced forms of the peptides, Bac (Oxidized) as comparator
[5] = table IIA, non-linear positive-charge modification derivatives
[6] = Table IIIB, non-linear positive-charge modification derivatives
[7] = Table IVA, non-linear hydrophobicity modification derivatives
[8] = Table IVB, non-linear hydrophobicity modification derivatives

| SMILES | concentration at which release of DiS-C3-(5) probe (dissipation of membrane potential) starts (E. coli DC2) | MIC P.aeruginosa (P.aeruginosa; [1]) | MIC P.aeruginosa (P.aeruginosa; [2]) | MIC Staph. epidermidis (Staph. epidermidis; [3]) | MIC Staph. epidermidis (Staph. epidermidis; [4]) | MIC S.typhimurium (S.typhimurium; [1]) | MIC S.typhimurium (S.typhimurium; [2]) | MIC Strep. mitis (Strep. mitis; [3]) | MIC Strep. mitis (Strep. mitis; [4]) | MIC Listeria (Listeria monocytogenes; [3]) | MIC Listeria (Listeria monocytogenes; [4]) | concentration causing half maximal outer membrane permeabilization (NPN) (E. coli UB1005) | MIC Strep. pyogenes (Strep. pyogenes; [3]) | MIC Strep. pyogeness (Strep. pyogenes) | MIC Staph. aureus (Staph. aureus; [3]) | MIC Staph. aureus (Staph. aureus; [4]) | MIC C. xerosis (C. xerosis; [3]) | MIC C. xerosis (C. xerosis; [4]) | MIC Strep. pneumoniae (Strep. pneumoniae) | MIC Strep. pneumonia (Strep. pneumoniae) | other results |
| --- | --- | --- | --- | --- | --- | --- | --- | --- | --- | --- | --- | --- | --- | --- | --- | --- | --- | --- | --- | --- | --- |
| CC[C@H](C)[C@H](NC(=O)[C@H](CCCNC(=N)N)NC(=O)[C@H](CS)NC(=O)[C@H](CC(C)C)NC(=O)[C@@H](N)CCCNC(=N)N)C(=O)N[C@H](C(=O)N[C@H](C(=O)N[C@H](C(=O)N[C@@H](CCCNC(=N)N)C(=O)N[C@H](C(=O)N[C@@H](CS)C(=O)N[C@@H](CCCNC(=N)N)C(=O)O)C(C)C)[C@@H](C)CC)C(C)C)C(C)C [Bac (Reduced), RLCRIVVIRVCR] (H-RLCRIVVIRVCR-OH) | well below the MIC concentration | > 64 µg/mL | > 64 µg/mL | 8 µg/mL (≈ 5.38 µM) | 8 µg/mL (≈ 5.38 µM) | > 64 µg/mL | > 64 µg/mL | 1 µg/mL (≈ 0.673 µM) | 1 µg/mL (≈ 0.673 µM) | 1 µg/mL (≈ 0.673 µM) | 1 µg/mL (≈ 0.673 µM) | 4.5 µg/mL | 16 µg/mL (≈ 10.8 µM) | 16 µg/mL (≈ 10.8 µM) | > 64 µg/mL | > 64 µg/mL | 1 µg/mL (≈ 0.673 µM) | 1 µg/mL (≈ 0.673 µM) | 4 µg/mL (≈ 2.69 µM) | 4 µg/mL (≈ 2.69 µM) | – |
| CC[C@H](C)[C@@H]1NC(=O)[C@H](C(C)C)NC(=O)[C@H](C(C)C)NC(=O)[C@H]([C@@H](C)CC)NC(=O)[C@@H]2CCCN2C(=O)[C@@H](NC(=O)[C@H](CCCNC(=N)N)NC(=O)[C@@H](N)CCCNC(=N)N)CSSC[C@@H](C(=O)N[C@@H](CCCNC(=N)N)C(=O)O)NC(=O)[C@H](C(C)C)NC(=O)[C@H](CCCNC(=N)N)NC1=O [Bac R, P, RRCPIVVIRVCR] (HELM PEPTIDE1{R.R.C.P.I.V.V.I.R.V.C.R}$PEPTIDE1,PEPTIDE1,3:R3-11:R3$$$V2.0) | – | – | – | – | – | – | – | – | – | – | – | – | – | – | – | – | – | – | – | – | MIC P.aeruginosa (P.aeruginosa; [5]): > 32 µg/mL; MIC Staph. epidermidis (Staph. epidermidis; [6]): > 32 µg/mL; MIC S.typhimurium (S.typhimurium; [5]): 16 µg/mL (≈ 10.9 µM); MIC S. mitis (Strep. mitis; [6]): 16 µg/mL (≈ 10.9 µM); MIC Listeria (Listeria monocytogenes; [6]): 8 µg/mL (≈ 5.45 µM); MIC Strep. pyogenes (Strep. pyogenes; [6]): > 64 µg/mL; MIC Staph. aureus (Staph. aureus; [6]): 32 µg/mL (≈ 21.8 µM); MIC C. xerosis (C. xerosis; [6]): 16 µg/mL (≈ 10.9 µM); MIC S. pneumonia (Strep. pneumoniae): > 64 µg/mL |
| CC[C@H](C)[C@@H]1NC(=O)[C@H](CCCNC(=N)N)NC(=O)[C@@H](NC(=O)[C@H](CC(C)C)NC(=O)[C@@H](N)CCCNC(=N)N)CSSC[C@@H](C(=O)N[C@@H](CCCNC(=N)N)C(=O)O)NC(=O)[C@H](C(C)C)NC(=O)[C@H](CCCNC(=N)N)NC(=O)[C@H]([C@@H](C)CC)NC(=O)[C@H](C(C)C)NC(=O)[C@H](C(C)C)NC1=O [Bactenecin, RLCRIVVIRVCR] (HELM PEPTIDE1{R.L.C.R.I.V.V.I.R.V.C.R}$PEPTIDE1,PEPTIDE1,3:R3-11:R3$$$V2.0) | 1/2 | 8 µg/mL (≈ 5.39 µM) | 8 µg/mL (≈ 5.39 µM) | > 64 µg/mL | > 64 µg/mL | 8 µg/mL (≈ 5.39 µM) | 8 µg/mL (≈ 5.39 µM) | 2 µg/mL (≈ 1.35 µM) | 2 µg/mL (≈ 1.35 µM) | 8 µg/mL (≈ 5.39 µM) | 8 µg/mL (≈ 5.39 µM) | 0.8 µg/mL | 16 µg/mL (≈ 10.8 µM) | 16 µg/mL (≈ 10.8 µM) | 32 to 64 µg/mL | 32 to 64 µg/mL | 1 µg/mL (≈ 0.674 µM) | 1 µg/mL (≈ 0.674 µM) | > 64 µg/mL | > 64 µg/mL | MIC P.aeruginosa (P.aeruginosa; [7]): 8 µg/mL (≈ 5.39 µM); MIC P.aeruginosa (P.aeruginosa; [5]): 8 µg/mL (≈ 5.39 µM); MIC Staph. epidermidis (Staph. epidermidis; [6]): > 64 µg/mL; MIC Staph. epidermidis (Staph. epidermidis; [8]): > 64 µg/mL; MIC S.typhimurium (S.typhimurium; [7]): 8 µg/mL (≈ 5.39 µM); MIC S.typhimurium (S.typhimurium; [5]): 8 µg/mL (≈ 5.39 µM); MIC S. mitis (Strep. mitis; [6]): 2 µg/mL (≈ 1.35 µM); MIC S. mitis (Strep. mitis; [8]): 2 µg/mL (≈ 1.35 µM); MIC Listeria (Listeria monocytogenes; [6]): 1 µg/mL (≈ 0.674 µM); MIC Listeria (Listeria monocytogenes; [8]): 1 µg/mL (≈ 0.674 µM); MIC E.facaelis (E.facaelis): > 64 µg/mL; MIC Strep. pyogenes (Strep. pyogenes; [6]): 16 µg/mL (≈ 10.8 µM); MIC Strep. pyogenes (Strep. pyogenes; [8]): 16 µg/mL (≈ 10.8 µM); MIC Staph. aureus (Staph. aureus; [6]): 32 to 64 µg/mL; MIC Staph. aureus (Staph. aureus; [8]): 32 to 64 µg/mL; MIC C. xerosis (C. xerosis; [6]): 8 µg/mL (≈ 5.39 µM); MIC C. xerosis (C. xerosis; [8]): 8 µg/mL (≈ 5.39 µM); MIC S. pneumonia (Strep. pneumoniae): > 64 µg/mL; MIC S. pneumoniae (Strep. pneumoniae; [8]): > 64 µg/mL |
